# This is one part of the list.
# B1: PpFlo2 (Pichia pastoris) (protein)
# chain: MGSSHHHHHHSSGLVPRGSHMDDSGNGDNSDTAYGCDITTNAVDGFDATIYQYNANDLRLIRDPTFMSTGYLGRNVLNKISGVTVPGFNIWNPSSRTATVYGVKNVNYYNMVLELKGYFKADVSGDYKLTLSHIDDSSMLFFGKETAFKCCDAGSIPLNEAPTDYSLFTIKPSNQVNSEVISATQYLEAGKYYPVRIVFVNALERARFDFKLTIPSGAVLDDFQNYIYQFGDLDENSCHE
# Key:
# Experiment in all cases: glycan array binding signal (z-score within array); higher = stronger binding
# Details in all cases: glycan notation: IUPAC condensed, linker removed
# [1] = molecular target: Neu5Ac(a2-3)Gal(b1-4)[Fuc(a1-3)]GlcNAc(b1-3)Gal(b1-4)[Fuc(a1-3)]GlcNAc(b1-3)Gal(b1-4)[Fuc(a1-3)]GlcNAc
# How it was run: (§1)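 The Consortium for Functional Glycomics database supplied 3228 glycan arrays, of which those lacking an available protein sequence were dropped. The binding signal, a within-array Z-score, was averaged across arrays of the same protein sequence and across linkers. Negative scores can be read as non-binding.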
# [2] = molecular target: Neu5Ac(a2-3)Gal(b1-4)[Fuc(a1-3)]GlcNAc(b1-3)GalNAc
# How it was run: as §1
# [3] = molecular target: Neu5Ac(a2-3)Gal(b1-4)[Fuc(a1-3)]GlcNAc(b1-6)[Gal(b1-3)]GalNAc
# How it was run: as §1
# [4] = molecular target: Neu5Ac(a2-3)Gal(b1-4)[Fuc(a1-3)]GlcNAc(b1-6)[Neu5Ac(a2-3)Gal(b1-3)]GalNAc
# How it was run: as §1
# [5] = molecular target: Neu5Ac(a2-3)Gal(b1-4)[Fuc(a1-3)]GlcNAc6S
# How it was run: as §1
# [6] = molecular target: Neu5Ac(a2-3)Gal6S(b1-4)GlcNAc
# How it was run: as §1
# [7] = molecular target: Neu5Ac(a2-3)Gal6S(b1-4)[Fuc(a1-3)]GlcNAc
# How it was run: as §1
# Neu5Ac(a2-3)GalNAc = molecular target: Neu5Ac(a2-3)GalNAc
# How it was run: as §1
# [8] = molecular target: Neu5Ac(a2-3)GalNAc(b1-4)GlcNAc
# How it was run: as §1
# [9] = molecular target: Neu5Ac(a2-3)[GalNAc(b1-4)]Gal(b1-4)Glc
# How it was run: as §1
# [10] = molecular target: Neu5Ac(a2-3)[GalNAc(b1-4)]Gal(b1-4)GlcNAc
# How it was run: as §1
# [11] = molecular target: Neu5Ac(a2-3)[GalNAc(b1-4)]Gal(b1-4)GlcNAc(b1-3)GalNAc
# How it was run: as §1
# [12] = molecular target: Neu5Ac(a2-3)[Neu5Ac(a2-6)]GalNAc
# How it was run: as §1
# Neu5Ac(a2-6)Gal = molecular target: Neu5Ac(a2-6)Gal
# How it was run: as §1
# [13] = molecular target: Neu5Ac(a2-6)Gal(b1-3)GlcNAc(b1-3)[Gal(b1-4)GlcNAc(b1-6)]Gal(b1-4)Glc
# How it was run: as §1
# Neu5Ac(a2-6)Gal(b1-4)Glc = molecular target: Neu5Ac(a2-6)Gal(b1-4)Glc
# How it was run: as §1
# [14] = molecular target: Neu5Ac(a2-6)Gal(b1-4)GlcNAc
# How it was run: as §1
# [15] = molecular target: Neu5Ac(a2-6)Gal(b1-4)GlcNAc(b1-2)Man
# How it was run: as §1
# [16] = molecular target: Neu5Ac(a2-6)Gal(b1-4)GlcNAc(b1-2)Man(a1-3)Man(b1-4)GlcNAc(b1-4)GlcNAc
# How it was run: as §1
# [17] = molecular target: Neu5Ac(a2-6)Gal(b1-4)GlcNAc(b1-2)Man(a1-3)[Gal(b1-4)GlcNAc(b1-2)Man(a1-6)]Man(b1-4)GlcNAc(b1-4)GlcNAc
# How it was run: as §1
# [18] = molecular target: Neu5Ac(a2-6)Gal(b1-4)GlcNAc(b1-2)Man(a1-3)[GlcNAc(b1-2)Man(a1-6)]Man(b1-4)GlcNAc(b1-4)GlcNAc
# How it was run: as §1
# [19] = molecular target: Neu5Ac(a2-6)Gal(b1-4)GlcNAc(b1-2)Man(a1-3)[GlcNAc(b1-2)Man(b1-4)GlcNAc(b1-2)Man(a1-6)]Man(b1-4)GlcNAc(b1-4)GlcNAc
# How it was run: as §1
# [20] = molecular target: Neu5Ac(a2-6)Gal(b1-4)GlcNAc(b1-2)Man(a1-3)[GlcNAc(b1-4)][Neu5Ac(a2-6)Gal(b1-4)GlcNAc(b1-2)Man(a1-6)]Man(b1-4)GlcNAc(b1-4)GlcNAc
# How it was run: as §1
# [21] = molecular target: Neu5Ac(a2-6)Gal(b1-4)GlcNAc(b1-2)Man(a1-3)[Man(a1-6)]Man(b1-4)GlcNAc(b1-4)GlcNAc
# How it was run: as §1
# [22] = molecular target: Neu5Ac(a2-6)Gal(b1-4)GlcNAc(b1-2)Man(a1-3)[Neu5Ac(a2-3)Gal(b1-4)GlcNAc(b1-2)Man(a1-6)]Man(b1-4)GlcNAc(b1-4)GlcNAc
# How it was run: as §1
# [23] = molecular target: Neu5Ac(a2-6)Gal(b1-4)GlcNAc(b1-2)Man(a1-3)[Neu5Ac(a2-6)Gal(b1-4)GlcNAc(b1-2)Man(a1-6)]Man(b1-4)GlcNAc(b1-4)GlcNAc
# How it was run: as §1
# [24] = molecular target: Neu5Ac(a2-6)Gal(b1-4)GlcNAc(b1-2)Man(a1-3)[Neu5Ac(a2-6)Gal(b1-4)GlcNAc(b1-2)Man(a1-6)]Man(b1-4)GlcNAc(b1-4)[Fuc(a1-6)]GlcNAc
# How it was run: as §1
# [25] = molecular target: Neu5Ac(a2-6)Gal(b1-4)GlcNAc(b1-2)Man(a1-6)Man(b1-4)GlcNAc(b1-4)GlcNAc
# How it was run: as §1
# [26] = molecular target: Neu5Ac(a2-6)Gal(b1-4)GlcNAc(b1-2)Man(a1-6)[Gal(b1-4)GlcNAc(b1-2)Man(a1-3)]Man(b1-4)GlcNAc(b1-4)GlcNAc
# How it was run: as §1
# [27] = molecular target: Neu5Ac(a2-6)Gal(b1-4)GlcNAc(b1-2)Man(a1-6)[GlcNAc(b1-2)Man(a1-3)]Man(b1-4)GlcNAc(b1-4)GlcNAc
# How it was run: as §1
# [28] = molecular target: Neu5Ac(a2-6)Gal(b1-4)GlcNAc(b1-2)Man(a1-6)[Man(a1-3)]Man(b1-4)GlcNAc(b1-4)GlcNAc
# How it was run: as §1
# [29] = molecular target: Neu5Ac(a2-6)Gal(b1-4)GlcNAc(b1-2)[Neu5Ac(a2-6)Gal(b1-4)GlcNAc(b1-4)]Man(a1-3)[GlcNAc(b1-4)][Neu5Ac(a2-6)Gal(b1-4)GlcNAc(b1-2)[Neu5Ac(a2-6)Gal(b1-4)GlcNAc(b1-6)]Man(a1-6)]Man(b1-4)GlcNAc(b1-4)GlcNAc
# How it was run: as §1
# [30] = molecular target: Neu5Ac(a2-6)Gal(b1-4)GlcNAc(b1-2)[Neu5Ac(a2-6)Gal(b1-4)GlcNAc(b1-4)]Man(a1-3)[GlcNAc(b1-4)][Neu5Ac(a2-6)Gal(b1-4)GlcNAc(b1-4)Man(a1-6)]Man(b1-4)GlcNAc(b1-4)GlcNAc
# How it was run: as §1
# [31] = molecular target: Neu5Ac(a2-6)Gal(b1-4)GlcNAc(b1-2)[Neu5Ac(a2-6)Gal(b1-4)GlcNAc(b1-6)]Man(a1-6)[Neu5Ac(a2-6)Gal(b1-4)GlcNAc(b1-2)Man(a1-3)][GlcNAc(b1-4)]Man(b1-4)GlcNAc(b1-4)GlcNAc
# How it was run: as §1
# [32] = molecular target: Neu5Ac(a2-6)Gal(b1-4)GlcNAc(b1-3)Gal(b1-3)GlcNAc
# How it was run: as §1
# [33] = molecular target: Neu5Ac(a2-6)Gal(b1-4)GlcNAc(b1-3)Gal(b1-4)GlcNAc
# How it was run: as §1
# [34] = molecular target: Neu5Ac(a2-6)Gal(b1-4)GlcNAc(b1-3)Gal(b1-4)GlcNAc(b1-2)Man(a1-3)[Neu5Ac(a2-6)Gal(b1-4)GlcNAc(b1-3)Gal(b1-4)GlcNAc(b1-2)Man(a1-6)]GalNAc
# How it was run: as §1
# [35] = molecular target: Neu5Ac(a2-6)Gal(b1-4)GlcNAc(b1-3)Gal(b1-4)GlcNAc(b1-3)Gal(b1-4)GlcNAc
# How it was run: as §1
# [36] = molecular target: Neu5Ac(a2-6)Gal(b1-4)GlcNAc(b1-3)Gal(b1-4)GlcNAc(b1-3)Gal(b1-4)GlcNAc(b1-2)Man(a1-3)[Neu5Ac(a2-6)Gal(b1-4)GlcNAc(b1-3)Gal(b1-4)GlcNAc(b1-3)Gal(b1-4)GlcNAc(b1-2)Man(a1-6)]GalNAc
# How it was run: as §1
# [37] = molecular target: Neu5Ac(a2-6)Gal(b1-4)GlcNAc(b1-3)Gal(b1-4)GlcNAc(b1-3)GalNAc
# How it was run: as §1
# [38] = molecular target: Neu5Ac(a2-6)Gal(b1-4)GlcNAc(b1-3)Gal(b1-4)GlcNAc(b1-3)[Neu5Ac(a2-6)Gal(b1-4)GlcNAc(b1-3)Gal(b1-4)GlcNAc(b1-6)]GalNAc
# How it was run: as §1
# [39] = molecular target: Neu5Ac(a2-6)Gal(b1-4)GlcNAc(b1-3)Gal(b1-4)GlcNAc(b1-6)[Gal(b1-3)]GalNAc
# How it was run: as §1
binder,measurement,setting,value
B1,glycan array binding signal (z-score),[1],-0.274
same,glycan array binding signal (z-score),[2],-0.285
same,glycan array binding signal (z-score),[3],-0.293
same,glycan array binding signal (z-score),[4],-0.266
same,glycan array binding signal (z-score),[5],-0.301
same,glycan array binding signal (z-score),[6],-0.302
same,glycan array binding signal (z-score),[7],-0.297
same,glycan array binding signal (z-score),Neu5Ac(a2-3)GalNAc,-0.298
same,glycan array binding signal (z-score),[8],-0.302
same,glycan array binding signal (z-score),[9],-0.298
same,glycan array binding signal (z-score),[10],-0.292
same,glycan array binding signal (z-score),[11],-0.29
same,glycan array binding signal (z-score),[12],-0.301
same,glycan array binding signal (z-score),Neu5Ac(a2-6)Gal,-0.302
same,glycan array binding signal (z-score),[13],-0.289
same,glycan array binding signal (z-score),Neu5Ac(a2-6)Gal(b1-4)Glc,-0.298
same,glycan array binding signal (z-score),[14],-0.296
same,glycan array binding signal (z-score),[15],-0.261
same,glycan array binding signal (z-score),[16],-0.293
same,glycan array binding signal (z-score),[17],-0.281
same,glycan array binding signal (z-score),[18],0.745
same,glycan array binding signal (z-score),[19],-0.34
same,glycan array binding signal (z-score),[20],-0.273
same,glycan array binding signal (z-score),[21],-0.288
same,glycan array binding signal (z-score),[22],-0.271
same,glycan array binding signal (z-score),[23],-0.257
same,glycan array binding signal (z-score),[24],-0.266
same,glycan array binding signal (z-score),[25],-0.295
same,glycan array binding signal (z-score),[26],-0.291
same,glycan array binding signal (z-score),[27],2.77
same,glycan array binding signal (z-score),[28],-0.161
same,glycan array binding signal (z-score),[29],-0.267
same,glycan array binding signal (z-score),[30],-0.265
same,glycan array binding signal (z-score),[31],-0.272
same,glycan array binding signal (z-score),[32],-0.289
same,glycan array binding signal (z-score),[33],-0.295
same,glycan array binding signal (z-score),[34],-0.242
same,glycan array binding signal (z-score),[35],-0.291
same,glycan array binding signal (z-score),[36],-0.147
same,glycan array binding signal (z-score),[37],-0.272
same,glycan array binding signal (z-score),[38],-0.096
same,glycan array binding signal (z-score),[39],-0.182

# Reference: the supplement of paper PMC8728848
